From patent US20230031280A1, “GLP-2 FUSION POLYPEPTIDES AND USES FOR TREATING AND PREVENTING GASTROINTESTINAL CONDITIONS” (SHIRE-NPS PHARMACEUTICALS, INC., priority 2017, published 2023)

T1: human GLP-2R (Homo sapiens, UniProt O95838)
T1 construct: host or cells: CHO-K1
T1 sequence (O95838 1-553): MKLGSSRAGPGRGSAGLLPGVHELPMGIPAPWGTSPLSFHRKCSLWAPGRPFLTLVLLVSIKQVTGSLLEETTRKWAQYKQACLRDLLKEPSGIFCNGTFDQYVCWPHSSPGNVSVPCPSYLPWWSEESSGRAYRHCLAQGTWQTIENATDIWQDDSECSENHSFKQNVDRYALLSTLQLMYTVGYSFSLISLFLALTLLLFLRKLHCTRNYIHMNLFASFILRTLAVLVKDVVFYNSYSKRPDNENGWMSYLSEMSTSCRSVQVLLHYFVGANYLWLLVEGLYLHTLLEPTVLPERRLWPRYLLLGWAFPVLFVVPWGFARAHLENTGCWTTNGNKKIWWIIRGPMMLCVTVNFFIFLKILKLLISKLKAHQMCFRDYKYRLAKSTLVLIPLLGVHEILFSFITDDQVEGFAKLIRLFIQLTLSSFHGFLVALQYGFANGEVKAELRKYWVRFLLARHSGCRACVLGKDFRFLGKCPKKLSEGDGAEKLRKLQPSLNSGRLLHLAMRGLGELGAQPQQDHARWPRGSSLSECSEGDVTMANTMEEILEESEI

B1: GLP-2 peptibody E: GLP-2[A2G]-linker-IgG1 Fc (LALA); SEQ ID NO: 16 (protein, listed as Homo sapiens)
chain: HGDGSFSDEMNTILDNLAARDFINWLIQTKITDGGGGGGSGGGGSGGGGS[letters of human IgG1 Fc with changes left out]
B2: GLP-2 peptibody J: GLP-2[A2G]-long GAP/Gly/Ala linker-IgG1 Fc (LALA); SEQ ID NO: 19 (protein, listed as Homo sapiens)
chain: HGDGSFSDEMNTILDNLAARDFINWLIQTKITDGAPGGGGGAAAAAGGGGGGAPGGGGGAAAAAGGGGGGAPGGGGGAAAAAGGGGGGAP[letters of human IgG1 Fc with changes left out]

Tests used:
[1] = NanoDSF melting temperature / thermal stability; assay type: physicochemical; conditions: for NanoDSF melting temperature 1: first transition; for NanoDSF melting temperature 2: second transition
Protocol: Each of the GLP-2 peptibodies was tested by determining melting temperature with nanodifferential scanning fluorimetry (NanoDSF). NanoDSF is a measurement of protein stability over a range of temperatures, with a temperature ramp employed. The stability of tryptophan is measured by fluorescence, as reflected in a ratio of fluorescence at 350 nm to fluorescence at 330 nm. From the assay, one or more melting temperatures are determined. Because a protein in a certain state is understood to have a melting temperature, the number of melting temperatures observed reflects the number of different states.
(§1) Stability analysis was then performed using SEC-MALS and NanoDSF. For SEC-MALS, a Sepax Zenix C-150 column was used. The mobile phase buffer was 1× PBS with a final concentration of 400 mM NaCl. The flow rate was 0.8 mL per minute. 20 micrograms of total protein was injected. For NanoDSF, 10 microliters of sample was used, without normalization of the samples.
as §1

human GLP-2R = target: T1, human GLP-2R; assay: cAMP Hunter eXpress GLP2R CHO-K1 GPCR assay; assay type: cell-based; conditions: of the in vitro activity of GLP-2[A2G]
Protocol: The cAMP Hunter™ assay is based on enzyme fragment complementation (EFC). In EFC assay, the enzyme donor is fused to cAMP. Increased intracellular cAMP due to GLP2R activation competes with ED-cAMP for antibody. Unbound ED-cAMP complements the enzyme acceptor to form active beta galactosidase, which subsequently produces a luminescent signal.
The CHO-K1 cell line used is overexpressing human GLP-2R (Genbank accession number NM004246.1). […] Their activities were assayed via measurement of the concentration of cAMP in the media.

[2] = Rat pharmacokinetics, intravenous dosing; assay type: in vivo, Sprague-Dawley rats; conditions: single dose 1 mg/ml
Protocol: (§2) In the rat, four pharmacokinetic parameters were measured for Gattex® (a GLP-2 peptide having the A2G mutation): CL, Vc, Vt and Q. The same pharmacokinetic parameters were also measured for GLP-2 peptibodies A, B, E, J, K, L, M, O and P. The data is shown in Table 4. Male Sprague-Dawley rats (3 animals per group) were injected intravenously either via a jugular vein or tail vein catheter. A singles dose of test article was injected at a dose level of 1 mg/ml. The test articles were formulated in PBS pH 7.4 at a concentration of Blood samples were taken 0.083, 0.167, 0.33, 0.5, 1, 2, 6, 24, 48, 72, 120, 168, 240, and 336 hours post dose. Blood samples were collected into heparinized tubes and centrifuged for 5 minutes at 2000 xg within 10 minutes of collection. 100 μL of plasma were transferred to a 1.5 ml Eppendorf tube containing 2 μL of 50 mM PMSF. After mixing, the plasma samples were frozen at −80° C. until analysis.

[3] = Rat pharmacokinetics, subcutaneous dosing; assay type: in vivo, Sprague-Dawley rats; conditions: single dose 1 mg/ml
Protocol: as §2, with “5.” for “4.”, “subcutaneously into the intra-scapular region of the animal.” for “intravenously either via a jugular vein or tail vein catheter.”, “[…]” for “1.5”, “mixing” for “mixing,”, “analysis. Meso Scale Discovery (MSD) ELISA was undertaken to assay for the concentration of the GLP-2 peptibodies.” for “analysis.”
A sandwich immunoassay was developed using either an anti-Human IgG1 Fc antibody or an anti-human albumin antibody for capture of the peptibody and a sulfotag labeled anti GLP-2 antibody for detection.

[4] = SEC-MALS (Sepax Zenix C-150) peak distribution; assay type: physicochemical
Protocol: A SEC-MALS assay was performed to determine the primary state (main peak) and its molecular weight. […] The GLP-2 peptibody O (albumin fusion) eluted at a molecular weight indicative of a monomer.
as §1, §1

Molecule	NanoDSF melting temperature 1 [1]	NanoDSF melting temperature 2 [1]	in vitro activity relative to GLP-2[A2G] (human GLP-2R)	CL [2] [mL/h/kg]	Q [2] [mL/h/kg]	Vc [2] [L/kg]	Vt [2] [L/kg]	CL [3] [mL/h/kg]	Vc [3] [L/kg]	ka [3]	SEC-MALS Zenix C-150 main peak [4]	Q [3] [mL/h/kg]	Vt [3] [L/kg]
B1	1 = 67.5 °C	2 = 80 °C	24% and 18%	3	2.87	0.021	0.041	5.04	0.205	E (0.63 ka/day,			
B2	1 = 68.1 °C	2 = 82.0 °C		2.41	0.65	0.0376	0.022	8.12	0.193	J (0.93 ka/day,	98% main peak, 168,400 g/mol	0.012	0.0995

Values joined by “and” are separate entries in the source; they are usually repeats but may differ in a detail not shown here. Equal values may be shown once.
